# Measured values as given in PubChem BioAssay (Tox21).
# Where “and” joins values, the source holds several entries; their conditions need not be identical. Equal values may be shown once. The shares of active, inactive and inconclusive entries below differ from those in the screen. Potencies beside an inconclusive call are fits to weak or partial responses and may not hold up. Some structures have more than one record in an assay (separate samples or runs), and their calls can disagree. Calls of active or inactive are those of the source. Unless noted, the call rests on the fitted dose curve; in most records, active means well fitted curve in the direction sought with a large enough effect in the repeat runs; inconclusive means weak or mixed curves; inactive means no such curve, though single readings can be large; an effect the other way counts as inactive or inconclusive.
# Key:
# [1] = qHTS assay to identify small molecule agonists of H2AX - cell viability counter screen (AID 1224847; calls by dose curve; further: nearly all actives have a fitted effect of over 30% in size)
# Summary of the method: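 Counter-screen for viability: CellTiter-Glo ATP luminescence read after 3 h compound treatment (15-point titration, 0.76% DMSO final) of CHO-K1 cells at 37C, with 30 min room-temperature reagent incubation.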
# [2] = qHTS assay to identify small molecule antagonists of the estrogen related receptor (ERR) signaling pathway from Tox21 library (AID 1224848); further: nearly all actives have a fitted effect of over 50% in size
# Summary of the method: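 Quantitative high-throughput format: ERR reporter cells (2,000/well) pre-incubated 6 h, treated 18 h at 37 C with compounds in DMSO alongside positive and negative controls, then read by ONE-Glo luminescence.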
# [3] = qHTS RealTime-Glo MT Cell Viability Assay in HEK293 cells - 16 hour (AID 1224872); further: nearly all actives have a fitted effect of over 50% in size
# Summary of the method: (§1)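 Quantitative high-throughput screen of the Tox21 10K library in HEK293: cells and RealTime-Glo reagents plated together, compound added at 5 h, luminescence monitored through 40 h at 37 C.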
# [4] = qHTS RealTime-Glo MT Cell Viability Assay in HEK293 cells - 32 hour (AID 1224868); further: nearly all actives have a fitted effect of over 50% in size
# Summary of the method: as §1
# [5] = qHTS RealTime-Glo MT Cell Viability Assay in HepG2 cells - 8 hour (AID 1224873); further: nearly all actives have a fitted effect of over 55% in size
# Summary of the method: (§2)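 HepG2 cells (600/well) mixed with RealTime-Glo MT reagent, settled 5 h at 37 C/5% CO2 before compound addition. Nonlytic NanoLuc luminescence from viable-cell prosubstrate reduction read repeatedly during 40 h treatment at 37 C.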
# [6] = qHTS RealTime-Glo MT Cell Viability Assay in HEK293 cells - 40 hour (AID 1224874); conditions: RealTime-Glo luminescence; max response: stronger effect = lower value; further: nearly all actives have a fitted effect of over 50% in size
# Summary of the method: (§3)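 HEK293 + NanoLuc + prosubstrate, 600 cells/well; 5 h, 37 C/5% CO2; compound 23 nL in DMSO by pintool; 37 C; luminescence read at 0, 8, 16, 24, 32 and 40 h time points.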
# [7] = qHTS assay to identify small molecule agonists of the hypoxia (HIF-1) signaling pathway (AID 1224846; active means well fitted activation curve with a large enough effect in the signal ratio in the repeat runs, not every such curve was filed as active; inconclusive means weak or mixed curves; the % refers to the signal ratio; on activation: on the % scale 0 is the no-effect control and ±100 the full control effect); conditions: HRE-bla ME-180 cells, beta-lactamase ratio, 17 h; activation: at 76.8 µM (top of the series) unless noted
# Summary of the method: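 Reporter induction in HRE-bla ME-180 cells is taken as agonism: cells sit 5 hrs after plating, receive compounds or DMSO only, incubate 17 hrs at 37C under 5% CO2, and are loaded with CCF4-AM for beta-lactamase FRET measurement.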
# [8] = qHTS RealTime-Glo MT Cell Viability Assay in HepG2 cells - 24 hour (AID 1224867); further: nearly all actives have a fitted effect of over 50% in size
# Summary of the method: (§4)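 Compound treatment began 5 h after plating HepG2 cells (600/well) with NanoLuc luciferase and prosubstrate. Plates stayed at 37 C for 40 h; luminescence was captured at six time points, 0 h through 40 h.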
# [9] = qHTS RealTime-Glo MT Cell Viability Assay in HepG2 cells - 32 hour (AID 1224877); further: nearly all actives have a fitted effect of over 55% in size
# Summary of the method: as §4
# [10] = A CellTox Green Cytotoxicity Assay to monitor cytotoxicity in HepG2 cells - 24 hour (AID 1224878); further: nearly all actives have a fitted effect of over 45% in size
# Summary of the method: (§5)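 Measurements at 0, 8, 16, 24, 32 and 40 h of treatment captured CellTox Green fluorescence in HepG2 cells that had been co-plated with reagent and preincubated 5 h at 37 C/5% CO2.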
# [11] = A CellTox Green Cytotoxicity Assay to monitor cytotoxicity in HepG2 cells - 16 hour (AID 1224876); further: nearly all actives have a fitted effect of over 45% in size
# Summary of the method: as §5
# [12] = A CellTox Green Cytotoxicity Assay to monitor cytotoxicity in HepG2 cells - 40 hour (AID 1224879); further: nearly all actives have a fitted effect of over 40% in size
# Summary of the method: as §5
# [13] = qHTS RealTime-Glo MT Cell Viability Assay in HEK293 cells - 0 hour (AID 1224880); further: nearly all actives have a fitted effect of over 45% in size
# Summary of the method: as §3
# [14] = A CellTox Green Cytotoxicity Assay to monitor cytotoxicity in HEK293 cells - 32 hour (AID 1224881); further: nearly all actives have a fitted effect of over 40% in size
# Summary of the method: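 Tox21 screen in HEK293: membrane-impermeant cyanine dye fluoresces on binding dead-cell DNA; compound pinned 5 h post-seeding, plates held at 37 C, signal read repeatedly through 40 h.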
# [15] = qHTS RealTime-Glo MT Cell Viability Assay in HepG2 cells - 40 hour (AID 1224870); further: nearly all actives have a fitted effect of over 50% in size
# Summary of the method: as §2
# Potency means the concentration at half of the fitted maximal effect; tags describe the fitted curve by direction and shape or compound fluorescence and quenching.
smiles,measurement,setting,value
CCn1c2ccccc2c2cc(N)ccc21,Potency,[1],"inconclusive: 112 µM [cytotoxic, partial curve] and inconclusive: 63.5 µM [cytotoxic, partial curve]"
same,Potency,[2],"inconclusive: 77 µM [inhibitor, single point] and inconclusive: 54.5 µM [inhibitor, partial curve]"
same,Potency,[3],inactive
O=c1c(O)c(-c2ccc(O)cc2)oc2cc(O)cc(O)c12,Potency,[1],"inconclusive: 22.5 µM [rising, full curve] and inconclusive: 21.5 µM [rising, full curve]"
same,Potency,[4],"inconclusive: 48.8 µM [cytotoxic, partial curve]"
same,Potency,[3],"inconclusive: 43.5 µM [cytotoxic, partial curve] and inconclusive: 20.9 µM [cytotoxic, partial curve, poor fit]"
same,Potency,[5],"inconclusive: 29.5 µM [falling, partial curve, poor fit]"
same,Potency,[6],"inconclusive: 48.8 µM [cytotoxic, partial curve] and inconclusive: 29.5 µM [cytotoxic, partial curve, poor fit]"
O=C1CN(/N=C/c2ccc([N+](=O)[O-])o2)C(=O)N1,activation,[7],inconclusive: 15.9%
same,Potency,[4],"inconclusive: 48.8 µM [cytotoxic, partial curve]"
same,Potency,[3],"inconclusive: 61.4 µM [cytotoxic, partial curve, poor fit]"
same,Potency,[6],"inconclusive: 43.5 µM [cytotoxic, partial curve]"
CCCN(CCC)C(=O)C(CCC(=O)OCCCN1CCN(CCOC(=O)Cc2c(C)n(C(=O)c3ccc(Cl)cc3)c3ccc(OC)cc23)CC1)NC(=O)c1ccccc1 (configuration not stated),Potency,[7],"inconclusive: 26.8 µM [falling, single point]"
same,Potency,[8],"inconclusive: 19 µM [falling, partial curve]"
same,Potency,[4],"inconclusive: 26.8 µM [cytotoxic, single point]"
same,Potency,[5],"inconclusive: 21.3 µM [falling, partial curve]"
same,Potency,[6],"inconclusive: 26.8 µM [cytotoxic, single point]"
same,Potency,[9],"inconclusive: 21.3 µM [cytotoxic, partial curve, poor fit]"
same,Potency,[10],active: 23.9 µM
CC(=O)O[C@]1(C(C)=O)CC[C@H]2[C@@H]3C[C@H](C)C4=CC(=O)CC[C@]4(C)[C@H]3CC[C@@]21C,Potency,[1],inactive
same,Potency,[4],active: 19.5 µM and active: 10.7 µM
same,Potency,[3],"active: 17.4 µM and inconclusive: 21.3 µM [cytotoxic, partial curve]"
same,Potency,[5],"inconclusive: 38.9 µM [falling, partial curve, poor fit]"
same,Potency,[11],"inconclusive: 0.0756 µM [activator, partial curve]"
same,Potency,[12],"inconclusive: 61.6 µM [activator, partial curve, poor fit]"
same,Potency,[13],active: 691 nM and active: 756 nM
same,Potency,[14],"inconclusive: 48.9 µM [activator, partial curve, poor fit]"
CC1=C(/C=C/C(C)=C/C=C/C(C)=C/C(=O)Nc2ccc(O)cc2)C(C)(C)CCC1,Potency,[1],"active: 103 µM and inconclusive: 9.82 µM [cytotoxic, full curve, poor fit]"
same,Potency,[2],active: 14 µM and active: 11.9 µM
same,Potency,[8],active: 26.8 µM
same,Potency,[3],active: 796 nM and active: 477 nM
same,Potency,[5],active: 23.9 µM
same,Potency,[11],"inconclusive: 26.8 µM [activator, single point]"
same,Potency,[10],"inconclusive: 44.8 µM [activator, partial curve, poor fit] and inconclusive: 26.8 µM [activator, single point]"
same,Potency,[12],active: 50.2 µM and active: 23.9 µM
CC(=O)O[C@]1(C(C)=O)CC[C@H]2[C@@H]3C=C(Cl)C4=CC(=O)[C@@H]5C[C@@H]5[C@]4(C)[C@H]3CC[C@@]21C,Potency,[1],"inconclusive: 127 µM [cytotoxic, single point] and inconclusive: 113 µM [cytotoxic] and inconclusive: 61.9 µM [cytotoxic, single point]"
same,Potency,[4],"active: 24.5 µM and inconclusive: 27.5 µM [cytotoxic, partial curve] and inactive"
same,Potency,[15],"inconclusive: 54.9 µM [falling, partial curve, poor fit]"
same,Potency,[3],"inconclusive: 43.6 µM [cytotoxic, partial curve] and active: 21.9 µM"
same,Potency,[5],"inconclusive: 21.9 µM [falling, partial curve]"
same,Potency,[6],"active: 21.9 µM and inconclusive: 26.8 µM [cytotoxic, single point]"
same,Potency,[9],"inconclusive: 48.9 µM [cytotoxic, partial curve, poor fit] and inconclusive: 43.6 µM [cytotoxic, partial curve, poor fit]"
C=CCc1cc(S(=O)(=O)c2ccc(O)c(CC=C)c2)ccc1O,Potency,[1],"inconclusive: 127 µM [cytotoxic, single point]"
same,Potency,[8],"inconclusive: 49 µM [falling, partial curve]"
same,Potency,[15],"inconclusive: 54.9 µM [falling, single point]"
same,Potency,[9],"inconclusive: 49 µM [cytotoxic, partial curve]"
same,Potency,[13],"inconclusive: 38.9 µM [falling, partial curve]"
